The supplement of paper PMC3334620
Over roughly 33,000 sequences, “E-score (-0.5 to 0.5)” has its median near -0.016; the highest 2% begin near 0.32. This is one part of the list.

Biological target: T1, Stp1 (UniProt B3LFK1)
T1 sequence: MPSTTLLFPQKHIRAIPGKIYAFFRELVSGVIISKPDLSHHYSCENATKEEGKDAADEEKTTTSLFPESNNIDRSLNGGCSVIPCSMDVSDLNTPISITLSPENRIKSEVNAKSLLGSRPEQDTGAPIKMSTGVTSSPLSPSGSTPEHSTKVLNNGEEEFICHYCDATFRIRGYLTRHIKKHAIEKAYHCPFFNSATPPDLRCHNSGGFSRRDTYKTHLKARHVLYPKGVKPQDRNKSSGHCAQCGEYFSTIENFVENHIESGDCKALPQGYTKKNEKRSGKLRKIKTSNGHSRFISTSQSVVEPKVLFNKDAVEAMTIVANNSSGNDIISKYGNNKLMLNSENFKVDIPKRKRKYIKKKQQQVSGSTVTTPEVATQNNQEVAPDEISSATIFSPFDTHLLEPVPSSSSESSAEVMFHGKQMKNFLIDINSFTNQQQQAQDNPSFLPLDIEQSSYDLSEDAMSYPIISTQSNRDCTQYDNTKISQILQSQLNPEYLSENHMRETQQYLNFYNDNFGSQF
Assay: PBM E-score (8-mer binding enrichment) (E-score (-0.5 to 0.5)); higher = stronger / more preferred TF binding; most listed sequences are background and not binding sites
Settings: protein concentration: 200 nM; construct: GST-full length
Experimental: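 Universal 'all 10-mer' protein binding microarrays (Agilent AMADID 015681) probed with GST-tagged S. cerevisiae TFs (full-length or DBD) made by in vitro transcription/translation (PURExpress), about 100-200 nM. Bound TF was detected with fluorescent anti-GST. Each ungapped 8-mer (which stands for itself and its reverse complement) is scored by the PBM enrichment score (E-score), a modified Wilcoxon-Mann-Whitney statistic from -0.5 to +0.5, computed with the Universal PBM Analysis Suite. Scale: above 0.35 generally sequence-specific binding.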

Sequence | PBM E-score
CAAATAGC | 0.0889
CTCCTGTA | 0.0369
CAGTGGCC | -0.167
CCCCTTGC | -0.213
CGCAAACA | 0.109
CTTATAAA | 0.115
GTTTTTTA | 0.0825
ACGCCTGG | -0.0577
AGCTTCAT | -0.0411
CCATATCA | 0.0495
CGACCCGC | 0.0115
CATAATAG | 0.221
CGGGCAAC | -0.143
GTACCACA | 0.121
AAGCGAAT | 0.0604
ATGCACCA | -0.0872
AACTTTAC | -0.019
CACTCGGC | 0.28
AACTACTC | 0.107
CCTCGGGA | -0.121
AGTCTTTC | -0.208
CCGGTAGG | 0.0318

Sequence | PBM E-score
GCTTCTCA | -0.206
ATAAATGA | 0.0145
CGCCTTTC | 0.354
CGCGTCCA | 0.132
GGATACCC | -0.163
CCGAGTCC | -0.0324
AAGATGCA | -0.0477
AGACGAAA | 0.189
CCAGCGCC | 0.235
GATCCCGC | -0.0668
CGAGATCG | -0.0492
AATCCCAT | -0.191
TAATTGAA | 0.107
ACGGTACC | 0.118
ATGTACAA | 0.115
ACTGCCAT | 0.0701
TAACCAGA | -0.058
CGCTCCTC | -0.144
CTCCAGTA | -0.00483
CTATGCAA | -0.0966
ACAATATA | 0.18
AGGCTGTA | 0.0388

Sequence | PBM E-score
ACAAAGAT | 0.149
CGTACCCC | -0.0145
GTCGCAAA | 0.155
GGGAGGCA | 0.00612
ATCCTCTC | -0.11
GCACATCC | -0.023
CGTTCCGA | 0.0281
ACCGGGAT | -0.384
ACCCTACG | -0.112
AGTCATAC | -0.102
CGACCAGC | -0.133
CCACAACA | 0.0345
ACATGGAA | -0.0118
ACACCGGT | -0.141
GAGTCACA | -0.0824
AATTCCTA | 0.0887
CTAGGCAG | -0.11
ACATTATC | 0.0248
AAGCTCTC | -0.133
AGTGGGGA | -0.203
TCCTACGA | -0.249
TTCCCGAA | -0.00196

Sequence | PBM E-score
CCCGTATA | 0.12
ATGTCTCA | -0.133
ATATATAA | 0.284
CCTTTTAG | -0.113
AAATTGAC | 0.065
ACGCTATA | -0.0998
ACTGTGTA | -0.0229
ATATTTTG | 0.0588
AGTTACTC | 0.107
CATAGGGA | 0.0911
CCCCCTCA | -0.365
ACAAAGAC | 0.0546
GCTGTGTA | 0.0044
CTCTAAGC | 0.0166
GCACGTAC | 0.141
ACACTTTC | -0.148
ATACAAAA | 0.193
ATGCGAGC | -0.0578
CCACACTC | -0.185
ACTCTGCT | -0.293
ACGCAGTG | -0.0766
ACCCCAAC | -0.0995

Sequence | PBM E-score
ACGTGGAT | 0.0437
CATCAGTC | -0.0756
ACCTAGGC | -0.245
CCGAATAG | -0.0446
GTAGTGAA | 0.0459
TAGGCTAA | -0.0054
CGCTCCGC | 0.242
CCAGCACA | -0.245
CCCACATA | -0.342
ATTTCTAG | 0.109
ACCCAGGA | -0.132
CAGTTCAA | -0.0159
AACCAAAA | 0.066
GAACAAAA | 0.252
CACTATCA | 0.0484
TCTTTGAA | 0.0181
AGAGGTAT | 0.184
ATCCTTTA | 0.13
ATTTATGA | 0.163
GTGTATGA | 0.0678
ATGATCGG | -0.0283
